In PubChem BioAssay AID686978 (National Center for Advancing Translational Sciences (NCATS), 2013):
Screen size: about 420,000 compounds; about 64,000 (15%) were called active. Inconclusive means that the source gave no clear call. Such entries were picked first, then a sample of the others. Calls come from the whole dose curve; as a rule, active = well fitted inhibition curve with a large enough effect; inconclusive = small, poorly fitted or top-dose-only effect; inactive = flat fitted curve, though single readings scatter. No potency is given beside an inconclusive call; the fits are too rough.

Assay: qHTS for Inhibitors of human tyrosyl-DNA phosphodiesterase 1 (TDP1): qHTS in cells in absence of CPT; note: nearly all actives have a fitted effect of over 55% in size
Conditions: DT40 Tdp1-/- hTDP1 cells, no CPT, ATP luminescence, 48 h; activity change, negative = growth inhibition: at 46.2 µM (top of the series) unless noted
Procedure, shortened: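 No-CPT arm: Tdp1-/-;hTDP1 DT40 cells (400/well) plus compounds, incubated ≥48 hr at 37 °C. Readout CellTiter-Glo luminescence.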
% is set by controls: 0 for no effect and ±100 for the full control effect; potency is the fitted concentration of half-maximal effect; tags give direction and shape of the fitted curve.

SMILES	Potency	activity change, negative = growth inhibition
CCCn1cc(S(=O)(=O)c2ccc(OC)cc2)c(=O)c2cc(F)c(N3CCCC(C)C3)cc21 (stereo unspecified)	active: 18.4 µM	
COc1ccc(NC(=O)CN2C(=O)NC(C)(c3ccc(C)cc3)C2=O)cn1 (stereo unspecified)	inconclusive [inhibitor, partial curve]	
CCn1nc(C(=O)NCCc2ccc3c(c2)OCCO3)c2ccccc2c1=O	inconclusive [inhibitor, single point]	
CCOc1cc(/C=C2\SC(=NC)N(C)C2=O)cc(Cl)c1OC(C)=O	inconclusive [inhibitor, single point]	
CCN(CC)C(=O)OCc1c(-c2cccc(OC)c2)ncc2ccccc12	inconclusive [inhibitor, single point]	
CC(NC(=O)Nc1ccc([N+](=O)[O-])cc1)C(c1cccs1)N1CCCC1 (stereo unspecified)	inactive	
CCOc1cc(NC(=O)c2ccccn2)c(OCC)cc1NC(=O)CC(C)C	active: 8.2 µM	
COc1ccc(S(=O)(=O)Cc2ccc(C(=O)N3CCN(c4ccccn4)CC3)o2)cc1	inconclusive [inhibitor, partial curve, poor fit]	
COc1cc(/C=N/n2c(COc3ccccc3)n[nH]c2=S)cc(Br)c1O		inconclusive: -37.2% [inhibitor]
Cc1ccc(C(=O)Nc2nc3nc(-c4ccccc4)cc(=O)n3[nH]2)cc1	inconclusive [inhibitor, partial curve]	
O=C1c2ccccc2C(=O)N1CCCCSc1nnc(-c2ccc(OC(F)F)cc2)o1	inconclusive [inhibitor, single point]	
CCN(CC)c1ccc(/C=N/N=C(c2ccccc2)c2ccccc2)c(O)c1	active: 20.6 µM	
O=C(NCc1ccccc1)c1ccc(S(=O)(=O)Nc2cccc(C(F)(F)F)c2)cc1	inactive	
CCOc1ccc2nc(NC(=O)c3cnc(C)cn3)sc2c1	active: 20.6 µM	
CCOCCCNC(=O)c1ccc(NC(C)=O)cc1	inactive	
O=C(COc1ccccc1F)Nc1c(C(=O)Nc2cccc(F)c2)oc2ccccc12		inconclusive: -35.6% [inhibitor]
CCc1cccc(NC(=O)CCc2c(C)nn(-c3ccc(N4CCOCC4)nn3)c2C)c1		inconclusive: -32.6% [inhibitor]
Cc1nc2scc(C)n2c(=O)c1S(=O)(=O)Nc1ccc(OC(F)(F)F)cc1	active: 14.6 µM	
O=C(NCC(F)(F)F)N1CCOCC1	inactive	
N#Cc1ccc2ccn(CC(=O)NC3CCCCCC3)c2c1	inconclusive [inhibitor, partial curve, poor fit]	
O=C(c1ccco1)N(Cc1ccc([N+](=O)[O-])cc1)c1ccc(Cl)cc1	inconclusive [inhibitor, single point]	
CCCCCOC(=O)CSc1nc2sc3c(c2c(=O)n1-c1ccccc1)CC(C)(CC)OC3 (stereo unspecified)	inconclusive [inhibitor, single point]	
COc1ccc(OC)c(NC(=O)C2CCCN2S(=O)(=O)c2ccc3c(c2)CC(C)N3C(C)=O)c1 (stereo unspecified)	inconclusive [inhibitor, single point]	
CCOc1cc(C(=O)Nc2ccc(S(=O)(=O)N3CCCCC3)cc2)ccc1OCC(=O)N1CCOCC1	inconclusive [inhibitor, partial curve]	

SMILES	Potency	activity change, negative = growth inhibition
CC(C)c1ccc(NC(=S)N2CCCC2)cc1	inactive	
CC(=O)c1ccc(S(=O)(=O)N2CCC(C(=O)Nc3ncc(C)s3)CC2)cc1	inactive	
O=C1CC(N(CCc2ccccc2)C(=S)Nc2ccccc2)C(=O)N1c1ccccc1 (stereo unspecified)	inconclusive [inhibitor, single point]	
CCOC(=O)c1sc2nc(CC(=O)OC)nc(NCC(=O)OC)c2c1C	inactive	
COc1ccc(OC)c(NC(=O)CN2C(=O)C3(OCCCO3)c3ccccc32)c1	inactive	
CCCCC(=O)Nc1ccc(OCc2cc(=O)n3c(C)csc3n2)cc1	inconclusive [inhibitor, single point]	
CCN(CCO)c1ccc(NC(=S)Nc2cccc(S(=O)(=O)N(C)C)c2)cc1	inconclusive [inhibitor, single point]	
O=C(Nc1ccccc1)Nc1nnc([C@@H]2C[C@H](O)[C@@H](CO)O2)s1	inactive	
CS(=O)(=O)N1CCc2cc(-c3csc(NC(=O)C(c4ccccc4)c4ccccc4)n3)ccc21	inconclusive [inhibitor, single point]	
COc1ccc(-c2noc(N3CCCC(C(=O)Nc4ccc(C(C)=O)cc4)C3)n2)cc1 (stereo unspecified)	inconclusive [inhibitor, single point]	
CC(=O)Nc1cccc(OCc2ccc(S(=O)(=O)Cc3ccccc3)cc2)c1	active: 20.6 µM	
COc1cccc(NC(=O)C2c3cc(OC)c(OC)cc3C(=O)N(C)C2c2cccnc2)c1 (stereo unspecified)	inactive	
COc1cc(C(=O)N2CCN(c3cc(Cl)ccc3Cl)CC2)cc(OC)c1OC	active: 0.411 µM	
S=C1NCN(Cc2cccnc2)CN1c1cccc(Cl)c1	inactive	
COc1ccc(C(CCNCc2ccccc2)c2ccc(F)cc2)cc1 (stereo unspecified)	inconclusive [inhibitor, single point]	
O=C(NCc1ccccc1Cl)c1c2c(nc3ccccc13)C(=O)N(C1CCCCC1)C2	inconclusive [inhibitor, single point]	
Cn1c(=O)cc(SCC(=O)N2CCCC2)c2cc(Cl)ccc21	inactive	
COC(=O)c1ccccc1NC(=O)C1CCCN(S(C)(=O)=O)C1 (stereo unspecified)	inactive	
CC(=O)Nc1ccc(/C=C2\CCc3ccccc3C2=O)cc1	inactive	
CCOC(=O)c1ccc(N2C(=O)C(CC(=O)NC)N(CCc3ccc(OC)c(OC)c3)C2=S)cc1 (stereo unspecified)	inconclusive [inhibitor, single point]	
C#CCOCCOCCOCCNc1nc(N2CCN(C(=O)CCCCCCCCCCNC(=O)Cn3cc(C[C@@H](C)O)nn3)CC2)nc(N2CCN(C(=O)CCCCCCCCCCNC(=O)[C@@H](CCSC)n3cc(CCO)nn3)CC2)n1	active: 10.3 µM	
COc1cc2c(NC3CCN(C)CC3)nc(N3CCCN(C)CC3)nc2cc1OCCN(C)CCN(C)C	inactive	
CCOc1ccc(-c2ccc(SC)nn2)cc1	active: 8.2 µM	
O=C(NC1CC1)c1cccc(NC(=O)C2CCN(S(=O)(=O)c3cccc(C(F)(F)F)c3)CC2)c1	inconclusive [inhibitor, single point]	

SMILES	Potency	activity change, negative = growth inhibition
O=C1NC[C@@H](CCCCN2C[C@H](Cc3ccccc3)N(CCC3CCCCC3)C(=O)C2=O)N(CCc2ccccc2)C1=O	inconclusive [inhibitor, single point]	
C/C(=N\NC(=O)CSCc1ccc([N+](=O)[O-])cc1)c1ccccc1	active: 16.4 µM	
Cc1c(C)n(CCc2ccccc2)c2ncnc(NN)c12	inconclusive [inhibitor, single point]	
CC(C)NC(=O)N[C@H]1CC[C@H](CC(=O)NCc2ccc(Oc3ccccc3)cc2)O[C@@H]1CO	inconclusive [inhibitor, single point]	
O=C(COC(=O)c1ccccc1O)NCCC1=CCCCC1	active: 18.4 µM	
O=C(NC1CCCC1)C(c1ccc(F)cc1)N1CCC(O)(c2ccc(Cl)cc2)CC1 (stereo unspecified)	inconclusive [inhibitor, single point]	
COC(=O)CCCCCn1c(-c2ccccc2)cn2c3c(=O)n(C)c(=O)n(C)c3nc12	inconclusive [inhibitor, partial curve]	
COc1cc(C(=O)N(Cc2cc3cc(C)ccc3[nH]c2=O)CC2CCCO2)cc(OC)c1OC (stereo unspecified)	inactive	
CC1(C(=O)NS(=O)(=O)c2ccccc2Cl)CCN1C(=O)Cc1ccccc1Cl (stereo unspecified)	inactive	
Cc1ccc(N/C(N)=N/c2nc(C(F)(F)F)cc(C(F)(F)F)n2)cc1	inactive	
CCOC(=O)c1c(C)[nH]c(C2=NNC(=Nc3ccccc3)SC2)c1C	active: 9.2 µM	
c1ccc2c(c1)oc1c(Nc3ccc4c(c3)OCCO4)ncnc12	inconclusive [inhibitor, single point]	
CC(Oc1ccc(Cl)cc1Cl)C(=O)NCc1ccncc1 (stereo unspecified)	inconclusive [inhibitor, single point]	
Cc1cccc(CCn2c(=O)c3ccccc3n(CC(=O)Nc3ccccc3F)c2=O)c1	inconclusive [inhibitor, single point]	
COc1cc(/C=N/N=C(\N)c2nonc2N)cc(OC)c1OC	inactive	
N/C(=N\OCC(=O)Nc1ccc(F)c(Cl)c1)c1ccccc1	inconclusive [inhibitor, single point]	
C=CCNc1nc(Nc2ccc(-c3nc4ccccc4o3)cc2)nc(N2CCOCC2)n1	active: 25.9 µM	
COc1ccc(C=NN=C2c3ccccc3-c3ccccc32)cc1O	inconclusive [inhibitor, single point]	
COc1ccc(OC)c(C(=O)CSc2ncc3c(n2)-c2ccccc2N(Cc2ccccc2C)S3(=O)=O)c1		inconclusive: -33.1% [inhibitor]
COc1cc(/C=C/C(=O)OCC(=O)Nc2nnc(-c3ccccc3)o2)cc(OC)c1OC	inactive	
C=C1C[C@@]23CC4C5[C@@]6(C)C[C@H](O)C[C@@]57C2[C@H](O)[C@@H]1[C@H](O)[C@H]3[C@H]7N4C6		inactive: -8.57% [at 9.04 µM]
Cc1ccn2c(=O)cc(CSc3nnc(C)s3)nc2c1	inactive	
Nc1nc2ccccc2n1CCOc1ccc(Cl)cc1	inconclusive [inhibitor, single point]	
